At least one peptide structure holds a part that was inferred or is arguable (an end, a ring closure or a residue). Some compounds share one wording; it may come from a single statement. Peptide text beside a SMILES is read from it.
Legend:
CD8+ cells [1] = assay: IFNγ ELISPOT on CD8+ cells of immunized mice; type: in vivo, BALB/c mice; settings: for ELISpot: mice immunized with mutant peptide; for CD8 T cell response of immunized mice: text, ELISPOT
Description: For the ELISPOT assays, the negative controls were CD8+ cells from immunized mice without peptide stimulation. […] The magnitude of responses was rated by mean spot numbers per million CD8+ cells: 5-10 (+); 11-20 (++); 21-50 (+++); 51-100(++++) and >100(+++++).
(§1) All 18 peptides were used to immunize BALB/c mice. The draining lymph nodes (dLNs) of immunized mice were harvested one week after the single immunization, and the cells were stimulated in vitro for 16 h without any added peptide, the mutant peptide used for immunization, or the corresponding wild type peptide. The CD8+ cells were analyzed for activation (CD44+) and effector function (intracellular IFNγ+). (see Materials and Methods regarding the details of FACS analysis.) All possible patterns of immune-reactivity were observed (FIG. 3A): no immune response (12/18), a mutant peptide-specific, i.e. tumor-specific immune response (5/18), and a cross-reactive response between the mutant and corresponding wild type peptides (1/18).

CD8+ cells [2] = assay: Intracellular IFN-γ assay by FACS (ICS) on lymphocytes of immunized mice; type: in vivo, BALB/c mice; settings: for immunogenicity of WT counterpart (functional effector T cells): mice immunized with the WT counterpart of the named neo-epitope
Description: Intracellular IFN-γ assay by FACS and ELISPOT. Lymphocytes were incubated either with or without 1-10 μg/ml peptide. GolgiPlug (BD Biosciences, San Jose, Calif.) was added 1 h later. After incubation of 12 to 16 h, cells were stained for CD44 (clone IM7), CD4 (clone GK1.5) and CD8 (clone 53-6.7) (BD Biosciences, San Jose, Calif.), fixed and permeabilized using the Cytofix/Cytoperm™ kit (BD Biosciences, San Jose, Calif.), and stained for intracellular IFN-γ using Phycoerythrin-conjugated anti-mouse IFN-γ (clone XMG1.2, BD Biosciences, San Jose, Calif.). Cells were stained with 1 μl antibody/million cells in 50 μl staining buffer (PBS with 1% bovine serum albumin) and incubated for 20 min at 4° C. in the dark, or according to the manufacturer's instructions. Cells without peptide stimulation were used as a negative control, and the values for these controls was very close to the values seen with the negative control peptide. Typically, 95,000-129,000 lymphocytes (14,500-17,000 CD8+CD4− cells) were acquired. The background is consistently very low (10% of the signal).
as §1

CD8+ cells [3] = assay: Tetramer staining of CD8+ cells; type: in vivo, mice; settings: Meth A tumor-bearing mice, day 21 post-inoculation, tumor-draining LNs

Row | Structure (SMILES) | ELISpot (CD8+ cells [1]) | further results
1 | CC(C)C[C@H](NC(=O)CNC(=O)[C@H](CC(C)C)NC(=O)[C@H](CC(C)C)NC(=O)[C@H](CO)NC(=O)[C@H](CCCNC(=N)N)NC(=O)[C@H](CCCNC(=N)N)NC(=O)[C@H](CO)NC(=O)[C@H](CO)NC(=O)[C@H](Cc1c[nH]c2ccccc12)NC(=O)[C@@H](N)CO)C(=O)O [9430016H08Rik] (H-SWSSRRSLLGL-OH) | +++++ (>100 spots/10^6 CD8 = +++++) | –
2 | CC[C@H](C)[C@H](N)C(=O)N[C@@H](Cc1ccc(O)cc1)C(=O)NCC(=O)N[C@H](C(=O)N[C@H](C(=O)N[C@@H](C)C(=O)N[C@@H](CCCNC(=N)N)C(=O)N[C@@H](CC(N)=O)C(=O)N[C@@H](CCCNC(=N)N)C(=O)N[C@@H](C)C(=O)N[C@@H](CC(C)C)C(=O)O)C(C)C)C(C)C [Dis3l2.1, I(y/D)GVVARNRAL] | + (1-9 spots/10^6 CD8 = +) | –
3 | CC[C@H](C)[C@H](NC(=O)[C@H](Cc1ccc(O)cc1)NC(=O)[C@@H](N)CCC(N)=O)C(=O)N[C@@H](Cc1c[nH]cn1)C(=O)N[C@@H](CO)C(=O)N[C@@H](C)C(=O)N[C@@H](CC(N)=O)C(=O)N[C@H](C(=O)O)C(C)C [Mapk1.2, (q/K)YIHSANV] | – | immunogenicity of WT counterpart (functional effector T cells) (CD8+ cells [2]): elicited functional effector T cells in vivo
4 | CC[C@H](C)[C@H](NC(=O)[C@H](Cc1ccc(O)cc1)NC(=O)[C@H](CCC(N)=O)NC(=O)[C@H](CC(C)C)NC(=O)CNC(=O)[C@H](CCCNC(=N)N)NC(=O)[C@H](CC(C)C)NC(=O)[C@@H](NC(=O)[C@H](CCC(N)=O)NC(=O)[C@H](Cc1ccc(O)cc1)NC(=O)[C@@H](N)CC(C)C)[C@@H](C)CC)C(=O)O [Mapk1.3] | +++++ (>100 spots/106 CD8 = +++++) | IFNγ+CD44+ cells of CD8+CD4− cells stimulated with cognate peptide (response) (CD8+ cells [2]; FACS representative primary data, FIG. 9): 0.0064%
5 | CC(C)C[C@H](NC(=O)[C@H](CCCNC(=N)N)NC(=O)[C@H](Cc1ccc(O)cc1)NC(=O)[C@@H](N)CO)C(=O)N1CCC[C@H]1C(=O)N[C@@H](CO)C(=O)N[C@@H](CO)C(=O)N[C@@H](CCCNC(=N)N)C(=O)N[C@@H](CCCCN)C(=O)N[C@@H](CCCCN)C(=O)O [Mll2] | + (1-9 spots/10^6 CD8 = +) | –
6 | CC[C@H](C)[C@H](NC(=O)[C@H](C)NC(=O)[C@H](CC(C)C)NC(=O)[C@H](Cc1c[nH]cn1)NC(=O)[C@H](CC(C)C)NC(=O)[C@@H](NC(=O)[C@H](CO)NC(=O)[C@H](Cc1ccc(O)cc1)NC(=O)CN)C(C)C)C(=O)O [Nfkb1, G(y/D)SVLHLAI] (H-GYSVLHLAI-OH) | – | T cells recognizing peptide by tetramer staining (CD8+ cells [3]): low frequency of T cells
7 | CC[C@H](C)[C@H](NC(=O)[C@H](C)NC(=O)[C@H](CCCCN)NC(=O)[C@@H](NC(=O)[C@H](CCCCN)NC(=O)[C@H](CC(=O)O)NC(=O)[C@H](CCC(=O)O)NC(=O)[C@@H](N)CO)[C@@H](C)CC)C(=O)N[C@@H](CC(C)C)C(=O)O [Rangap1] (H-SEDKIKAIL-OH) | +++++ (>100 spots/10^6 CD8 = +++++) | –
8 | CSCC[C@H](NC(=O)[C@@H](NC(=O)[C@H](C)NC(=O)[C@@H](NC(=O)[C@H](CC(C)C)NC(=O)[C@H](CO)NC(=O)[C@H](CC(C)C)NC(=O)[C@H](CC(C)C)NC(=O)[C@H](Cc1ccc(O)cc1)NC(=O)[C@@H](N)CC(N)=O)C(C)C)C(C)C)C(=O)N[C@@H](CC(C)C)C(=O)O [Serinc1] (H-NYLLSLVAVML-OH) | +++++ (>100 spots/106 CD8 = +++++) | –
9 | CC(C)C[C@H](NC(=O)[C@H](Cc1ccc(O)cc1)NC(=O)[C@@H]1CCCN1C(=O)[C@@H]1CCCN1C(=O)[C@H](CCCNC(=N)N)NC(=O)CNC(=O)CNC(=O)[C@@H]1CCCN1C(=O)[C@@H](NC(=O)[C@@H](NC(=O)[C@@H](N)[C@@H](C)O)[C@@H](C)O)[C@@H](C)O)C(=O)O [Sipa1l3] (H-TTTPGGRPPYL-OH) | ++++ (51-100 spots/10^6 CD8 = ++++) | –
10 | CC[C@H](C)[C@H](NC(=O)[C@H](CS)NC(=O)CNC(=O)[C@H](Cc1c[nH]cn1)NC(=O)[C@H](Cc1ccccc1)NC(=O)CN)C(=O)N[C@@H](Cc1c[nH]cn1)C(=O)N[C@@H](CCC(=O)O)C(=O)N[C@H](C(=O)N[C@@H](CC(C)C)C(=O)O)C(C)C [Slit3] (H-GFHGCIHEVL-OH) | +++ (21-50 spots/10^6 CD8 = +++) | CD8 T cell response by intracellular cytokine assay (CD8+ cells [2]): un-detectable by the intracellular cytokine assay; CD8 T cell response of immunized mice (CD8+ cells [1]): modest CD8 T cell response
11 | CC[C@H](C)[C@H](NC(=O)[C@H](CS)NC(=O)[C@H](CC(C)C)NC(=O)[C@H](C)NC(=O)[C@H](CCC(N)=O)NC(=O)[C@H](CC(C)C)NC(=O)[C@H](CCSC)NC(=O)[C@H](Cc1ccc(O)cc1)NC(=O)[C@@H](N)CO)C(=O)N1CCC[C@H]1C(=O)N[C@H](C(=O)O)[C@@H](C)O [Tnpo3.2] | +++ (21-50 spots/10^6 CD8 = +++) | CD8 T cell response of immunized mice (CD8+ cells [1]): strong CD8 responses
12 | CC[C@H](C)[C@H](NC(=O)[C@H](CS)NC(=O)[C@H](CC(C)C)NC(=O)[C@H](C)NC(=O)[C@H](CCC(N)=O)NC(=O)[C@H](CC(C)C)NC(=O)[C@H](CCSC)NC(=O)[C@H](Cc1ccc(O)cc1)NC(=O)[C@@H](N)CO)C(=O)N1CCC[C@H]1C(=O)O [Tnpo3.3] (H-SYMLQALCIP-OH) | +++++ (>100 spots/10^6 CD8 = +++++) | CD8 T cell response of immunized mice (CD8+ cells [1]): strong CD8 responses
13 | CSCC[C@H](NC(=O)[C@H](Cc1ccc(O)cc1)NC(=O)[C@@H](N)CO)C(=O)N[C@@H](CC(C)C)C(=O)N[C@@H](CCC(N)=O)C(=O)N[C@@H](C)C(=O)N[C@@H](CC(C)C)C(=O)N[C@@H](CS)C(=O)O [Tnpo3.4, (sy/LD)MLQALC] (H-SYMLQALC-OH) | – | CD8 T cell response of immunized mice (CD8+ cells [1]): does not
14 | CC(C)C[C@H](N)C(=O)N[C@@H](Cc1ccc(O)cc1)C(=O)N[C@@H](CCC(=O)O)C(=O)N[C@@H](C)C(=O)NCC(=O)N[C@H](C(=O)N[C@H](C(=O)N[C@@H](CC(=O)O)C(=O)N[C@@H](CCC(=O)O)C(=O)N[C@H](C(=O)O)C(C)C)[C@@H](C)O)C(C)C [Tpst2.1] | +++ (21-50 spots/10^6 CD8 = +++) | –
15 | CC(C)C[C@H](N)C(=O)N[C@@H](Cc1ccc(O)cc1)C(=O)N[C@@H](CCC(=O)O)C(=O)N[C@@H](C)C(=O)NCC(=O)N[C@H](C(=O)N[C@H](C(=O)N[C@@H](CC(=O)O)C(=O)N[C@@H](CCC(=O)O)C(=O)O)[C@@H](C)O)C(C)C [Tpst2.2, L(y/D)EAGVTDE] (H-LYEAGVTDE-OH) | +++ (21-50 spots/10^6 CD8 = +++) | –
16 | CC[C@H](C)[C@H](NC(=O)[C@H](Cc1ccc(O)cc1)NC(=O)[C@H](C)N)C(=O)N[C@@H](CC(C)C)C(=O)N[C@@H](C)C(=O)N[C@@H](C)C(=O)N[C@@H](CC(C)C)C(=O)N[C@H](C(=O)N[C@@H](CCCCN)C(=O)N[C@@H](CC(C)C)C(=O)O)[C@@H](C)O [Trim26.1] (H-AYILAALTKL-OH) | +++++ (>100 spots/10^6 CD8 = +++++) | –
17 | CC[C@H](C)[C@H](NC(=O)[C@H](C)NC(=O)[C@H](C)NC(=O)[C@H](Cc1ccccc1)NC(=O)[C@H](CCC(N)=O)NC(=O)[C@H](CCCCN)NC(=O)[C@H](C)NC(=O)[C@H](Cc1ccc(O)cc1)NC(=O)[C@H](C)N)C(=O)O [Ube4a.1, A(y/D)AKQFAAI] (H-AYAKQFAAI-OH) | + (1-9 spots/10^6 CD8 = +) | –
18 | CC[C@H](C)[C@H](NC(=O)[C@@H]1CCCN1C(=O)[C@H](CC(C)C)NC(=O)[C@@H](NC(=O)[C@H](CCSC)NC(=O)[C@H](CC(N)=O)NC(=O)[C@@H](NC(=O)[C@H](Cc1ccc(O)cc1)NC(=O)[C@@H](N)Cc1c[nH]cn1)[C@@H](C)CC)[C@@H](C)CC)C(=O)O [Ufsp2, HYINM(i/S)LPI] (H-HYINMILPI-OH) | +++++ (>100 spots/106 CD8 = +++++) | immunogenicity of WT counterpart (functional effector T cells) (CD8+ cells [2]): elicited functional effector T cells in vivo
19 | CC(C)C[C@H](NC(=O)[C@H](CC(=O)O)NC(=O)[C@H](CC(C)C)NC(=O)[C@H](Cc1ccc(O)cc1)NC(=O)[C@@H](N)CCC(=O)O)C(=O)N[C@@H](CCC(N)=O)C(=O)N[C@H](C(=O)N[C@@H](CCC(N)=O)C(=O)O)[C@@H](C)O [Zfp236.1, E(y/D)LDLQTQ] (H-EYLDLQTQ-OH) | +++ (21-50 spots/10^6 CD8 = +++) | –
20 | CC(C)C[C@H](NC(=O)[C@H](CC(=O)O)NC(=O)[C@H](CC(C)C)NC(=O)[C@H](Cc1ccc(O)cc1)NC(=O)[C@@H](N)CCC(=O)O)C(=O)N[C@@H](CCC(N)=O)C(=O)N[C@H](C(=O)N[C@@H](CCC(N)=O)C(=O)NCC(=O)O)[C@@H](C)O [Zfp236.2, E(y/D)LDLQTQG] (H-EYLDLQTQG-OH) | ++++ (51-100 spots/10^6 CD8 = ++++) | –

— US11338026B2, “Identification of immunologically protective neo-epitopes for the treatment of cancers” (THE UNIVERSITY OF CONNECTICUT, priority 2014, dated 2022)
